22 molecules from article PMC12136788 can be followed below.

B1: chr7:80742675:80742739:-|3pUTR|ENSG00000075223|msi1_unk|total|mutant (ssRNA)
RNA: GGGAGUUCUACAGUCCGACGAUCGCCGCUUGACAAUUCAGUGACUUAAUAUCUAUUCCAUUUGUAUUGUACAUAAAAUUUUCCCGAAAUACACUUUUUUCCAAAGUGUAAGUUUGUGAACCGAUUUCCGCAUGAUGAAACUGUCAACAGAGGAUUGAGCAUCA
B2: chr9:5123879:5124511:-|three_prime_utr|ENSG00000120210|control|control|control (ssRNA)
RNA: GGGAGUUCUACAGUCCGACGAUCCUGGUAAAUUGGAUUGCCAUAUGCAGAAGAAUGAAACUGGACCCAUAUUUAUCACCAUAUAGAAAAAUUAACUCGAUCGAUUACAGACUUAAAUGUAAGAUCUGAAACUAGAAAAAUACUCAACAGAGGAUUGAGCAUCA
B3: chr9:125236489:125236593:-|3pUTR|ENSG00000044574|msi1_unk|total|mutant (ssRNA)
RNA: GGGAGUUCUACAGUCCGACGAUCUGCCGACACUGAUCUGCCCGUGCUGUAAUAUUGUAAAUACUGGACUCAGGAACUUUUGUCCGGAAAAAAUUGAAAGAACUUAAGUCUCGAAUGUAAUUGGAAUCUUCACCUCAGAGUGGACAACAGAGGAUUGAGCAUCA
B4: chr2:135724104:135724205:+|CDS|ENSG00000048991|msi1|FALSE|unique (ssRNA)
RNA: GGGAGUUCUACAGUCCGACGAUCCAACACUGCCAACCCUGAACGCUCUAAACCCAGUGACUUGGCCUCCACCUACACCGUCUUAGCCACAUUCCCCUCCAUUUCAGCUGCACAGAAUGCACUGAAGAAACAAAUUAACUCAGUCAACAGAGGAUUGAGCAUCA
B5: chr4:1716041:1716142:-|3pUTR|ENSG00000168936|msi1|FALSE|unique (ssRNA)
RNA: GGGAGUUCUACAGUCCGACGAUCAGGCUUCCUAGAGCGCUCAGCAGGUGAAGGCAGCAGGGGCCAUGGCCGGGAGCCAGGCCUAGCUUUGAACUGAGUUUCAAGGGCUGCCAAAGAGGGGCAGUGGGUUGGGGUUGUUUUUACCAACAGAGGAUUGAGCAUCA
B6: chr12:106067485:106067586:-|CDS|ENSG00000074590|msi1|total|mutant (ssRNA)
RNA: GGGAGUUCUACAGUCCGACGAUCCCUGAAGAAGCGAAGCAACAGCGAGCAUCGCUCUCACAGCACUGGCUUCAUUGAAGGUGCCGUUGGUCCUGCCUUACCCUCUACUUUCAAGAUGGAGCAGGACUUGUGCAGGACUGGCGUCAACAGAGGAUUGAGCAUCA
B7: chr3:49887309:49887562:-|CDS|ENSG00000164078|control|control|control (ssRNA)
RNA: GGGAGUUCUACAGUCCGACGAUCGGAGGCAGACCCAGCAGUGCGACCCACCUUCAGAGUACUAGUGGGGGAGGUGGAGCAGAUAGUGUCUGCACUGCUUGGGGACCAUUAUGUGCAGCUGCCAGCAACCUACAUGAACUUGGGCAACAGAGGAUUGAGCAUCA
B8: chr2:216674409:216674600:-|3pUTR|ENSG00000115461|msi1|FALSE|unique (ssRNA)
RNA: GGGAGUUCUACAGUCCGACGAUCUCAUGGCAUGACACAGCGGAGACCGCCUCCAACAACGAAUUUGGGGCUACGAAGAGGAAUAGCGAAAAAGCAAAUCUGUUUCAACUGAUGGGAACCCUAUAGCUAUAGAACUUGGGGGCUCAACAGAGGAUUGAGCAUCA
B9: chr12:125025615:125025697:+|3pUTR|ENSG00000184992|msi1_unk|FALSE|overlapping (ssRNA)
RNA: GGGAGUUCUACAGUCCGACGAUCGGACACAUUCCCAGAAGAGCGGAAAGAUCAUUGACGUGGAACUACACACGAAGUGUAAUUAGUGGGGGAAAAAAUAUUUUUUAAACAAAGGAUAUAACCAUAUUUAGUUGUACAGUAAGACAACAGAGGAUUGAGCAUCA
B10: chr17:63766011:63766126:-|CDS|ENSG00000108588|unk|total|mutant (ssRNA)
RNA: GGGAGUUCUACAGUCCGACGAUCGGUGUUUGGGAGUGUCUCUGAAGCCAAGUUUGAUGAUUUUGAGGAUGAGGAGGACACCGCCGAGUAUGAUGAUAAUGACUUCGCUGAAUUUGAGGAUGUCAUGGAAGACUCUGUUACUGACAACAGAGGAUUGAGCAUCA
B11: chr20:58360308:58360409:+|3pUTR|ENSG00000124209|msi1|total|mutant (ssRNA)
RNA: GGGAGUUCUACAGUCCGACGAUCCAUUGAACAUGUCCGCCCCGGAUACGUACAGUAAAUUAACAAUGACCGCAGCAGAUGCCCCGCUCAUCCUGGGUUUGCUUCUGACCUUGUCAUGUGUGUGCCACCAAACACGUUAUUGGCCAACAGAGGAUUGAGCAUCA
B12: chr14:49622334:49622435:+|CDS|ENSG00000168282|unk|FALSE|unique (ssRNA)
RNA: GGGAGUUCUACAGUCCGACGAUCCAAUACUUGACUGUAUCUUGUCUUCCAAAAUUCUGGAAAGUGCUGGUUCCUCAAAUUCCUAGGAUCUUUCAUGCUGGAGACUGUGGUAUGCAUCACAAGAAAACCUGUAGACCAUCCACUCAACAGAGGAUUGAGCAUCA
B13: chr9:33053202:33053303:-|CDS|ENSG00000122692|msi1|FALSE|unique (ssRNA)
RNA: GGGAGUUCUACAGUCCGACGAUCCCUAAAACUUUAGAAAUUUUUAUACCUAAAAAAGGUUUAUAACUUAAAUUUCUGUGUGGUAGAUCUGGAAUAUGAAGACCACAGAAUGUUCAAAUACCUUUAAAUCCCUGGGCAGCACCGCAACAGAGGAUUGAGCAUCA
B14: chr16:50751694:50751795:+|CDS|ENSG00000083799|unk|total|mutant (ssRNA)
RNA: GGGAGUUCUACAGUCCGACGAUCGCUUUUUCAGUGUGAUGAAGAUUGUGGCGUGUUUGUUGCAUUGGACAAGCCCGAACUCACCGAAGAUGAUGACACUGCAUUGGAAAGUGAUUACGCAGGUCCUGGGGACACAAUGCAGGUCAACAGAGGAUUGAGCAUCA
B15: chr2:190659421:190659522:+|CDS|ENSG00000138386|unk|total|mutant (ssRNA)
RNA: GGGAGUUCUACAGUCCGACGAUCAGAGACUGGGUCACAAACCCUGGGCUUUUCAAUCAGCCACUGACUUCCCUUCCUGUCAGCCGCAUACCCAUCUAUAAAUUACCAGAGGGAUCACCAACAUGGCUGGGAAUAUCCUGCAGUCAACAGAGGAUUGAGCAUCA
B16: chr1:17067933:17068034:-|3pUTR|ENSG00000117115|msi1|FALSE|unique (ssRNA)
RNA: GGGAGUUCUACAGUCCGACGAUCACAUAAGGACCCUGGCCUACCCUCCAGCCCAACAGCCAGUUCUGGGUCAGCUGCCAACUUAGGGGUGGUUUGAUUAUCCCAUUGAAAUUCACCAGUGCCUUUGCCAAAGACCCUCUCAUUCAACAGAGGAUUGAGCAUCA
B17: chr15:85581792:85581893:+|CDS|ENSG00000170776|unk|FALSE|bound_elsewhere (ssRNA)
RNA: GGGAGUUCUACAGUCCGACGAUCUGCCCAGGACGCACCUCUGCCUAAGGGGGCAGACUUGAUAGAGGAGGCUGCCAGCCGUAUAGUGGAUGCUGUCAUCGAACAAGUCAAGGCCGCUGGAGCACUGCUUACUGAGGGGGAGGCCAACAGAGGAUUGAGCAUCA
B18: chr6:138432586:138432687:-|CDS|ENSG00000135540|unk|total|mutant (ssRNA)
RNA: GGGAGUUCUACAGUCCGACGAUCGGAGCCCUGGGAAUACAAAUCCUCAGGUAAUGGAAGGGCAUCCCCCCUGAAGCCGCAUUCCGCAACUCCUGGCUAUUCCACUCCCACAAGUAACAUGAGCAGCUGCAGUUUGGACCAAACCAACAGAGGAUUGAGCAUCA
B19: chr13:42321371:42321394:+|3pUTR|ENSG00000023516|msi1_unk|total|mutant (ssRNA)
RNA: GGGAGUUCUACAGUCCGACGAUCUUCUGUUUAUGGUGUAAUCAUUCUGAGGUGAGGCUUUUCUUAUUUCCUUUGCAUUUUGCCCGAGCUGUGCUGAGUUCAGCAUUUGCUUAUUUAACCACUACAUAAUGACAGACCAGUUAUCAACAGAGGAUUGAGCAUCA
B20: chr5:154419581:154419682:+|3pUTR|ENSG00000164574|msi1|FALSE|unique (ssRNA)
RNA: GGGAGUUCUACAGUCCGACGAUCAAAGGGAUGGGUGUGUCCUCUGAGCACUCUGGCAUUUGUCAUUGCUGAGCCCAUAUCAGUAGGUCCUGGGACUUGACAAAGUAUGUGGGAGGGGAAGGAAGGACAGAACUUGACUGGCUCCAACAGAGGAUUGAGCAUCA
B21: chr16:30603633:30603734:-|3pUTR|ENSG00000156853|unk|total|mutant (ssRNA)
RNA: GGGAGUUCUACAGUCCGACGAUCGUUAAGUACCACAUUCUCCUCUAAACCUUGCCUACGACAUGUUUAAUACUUCAUCUACACCGCAGCCCUUCAGAUAAUCACAACCACUUUGCCCCCAAGUUUUCAGGUUAAGCCGCAUGACAACAGAGGAUUGAGCAUCA
B22: chr10:27170558:27170670:+|CDS|ENSG00000120539|unk|total|mutant (ssRNA)
RNA: GGGAGUUCUACAGUCCGACGAUCCUUAUGUGUGAACUCGAUGAAGACUGUGAAAAGAACCGUAAGAGGGACUACUUAAGUUCCCGUUUUCUAUGUUCUGAUGAUGACCGAGCUUCUAAAAAUAUUUCUAUGAACUCUGAUUCACAACAGAGGAUUGAGCAUCA

The other results are listed elsewhere or left out.

The assay deals with MSI1 full-length (mouse, UniProt Q61474 1-362). The assay can be described thus: nsRBNS (natural sequence RNA bind-n-seq); RBNS binding buffer (assumed for nsRBNS): 25 mM Tris pH 7.5, 150 mM KCl, 3 mM MgCl2, 0.01% Triton X-100, 500 ug/ml BSA, 20 U/ml SUPERase-In, 4 C; UNK is unkempt and MSI1 is Musashi-1; names of the RNAs are library labels; protein concentration not given here; high values mean tight binding.
UniProt Q61474, sequence (Q61474 whole entry): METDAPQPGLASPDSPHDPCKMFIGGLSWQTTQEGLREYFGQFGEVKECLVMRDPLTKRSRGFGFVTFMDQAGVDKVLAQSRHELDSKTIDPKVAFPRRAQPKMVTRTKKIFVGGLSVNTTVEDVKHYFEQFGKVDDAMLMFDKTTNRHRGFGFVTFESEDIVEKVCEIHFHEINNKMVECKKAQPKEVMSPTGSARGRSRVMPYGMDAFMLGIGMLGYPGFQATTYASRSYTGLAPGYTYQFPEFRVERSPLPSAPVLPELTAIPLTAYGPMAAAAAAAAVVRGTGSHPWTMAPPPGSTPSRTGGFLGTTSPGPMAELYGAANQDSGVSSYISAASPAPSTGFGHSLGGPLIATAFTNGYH
For the molecule B1, the binding signal came to 0.56 enrichment R.
B2 displayed a binding signal of 19.7 enrichment R.
In turn, B3 gave a binding signal of 0.411 enrichment R.
B4 showed a binding signal of 0.984 enrichment R.
As for B5, the figure is 0.567 enrichment R; as for B6, 0.281 enrichment R; as for B7, 5.47 enrichment R.
B8 displayed a binding signal of 1.07 enrichment R.
Regarding B9, the binding signal was found to be 3.62 enrichment R.
In the case of B10, the binding signal stood at 0.324 enrichment R.
In turn, B11 registered a binding signal of 0.359 enrichment R.
As for B12, the figure is 0.32 enrichment R.
B13: the binding signal came out at 1.01 enrichment R.
Turning to B14, the binding signal was found to be 0.396 enrichment R.
On to B15, for which the binding signal turned out to be 0.591 enrichment R.
As for B16, the binding signal was determined as 0.501 enrichment R.
The molecule B17 came in with a binding signal of 0.676 enrichment R.
The molecule B18 displayed a binding signal of 0.55 enrichment R.
With B19 the figure was 0.543 enrichment R; with B20, 0.52 enrichment R; with B21, 1.38 enrichment R.
In turn, B22 yielded a binding signal of 0.259 enrichment R.
